Out of some 270,000 compounds screened, about 620 (0.23%) were called active. The shares of active, inactive and inconclusive entries below differ from those in the screen. The call rests on the fitted dose curve; in most records, active means well fitted inhibition curve with a large enough effect in the polarisation, with a control signal flat (not every such curve was filed as active); inconclusive means small, poorly fitted or top-dose-only effect, or effect the other way, or a change in a side signal; inactive means no such curve, though single readings can be large or run the other way; the % refers to the polarisation. Potencies of inconclusive entries are doubtful fits and often do not repeat. A note “side channel” means that the fit belongs to a control or component signal, not to the main read-out.
These molecules were tested against Menin (Homo sapiens) (UniProt O00255) (assay: qHTS Assay for Inhibitors Targeting the Menin-MLL Interaction in MLL Related Leukemias: Competition With Texas Red Labeled MLL-derived Mutant Peptide). Details: fluorescence polarization; series mostly up to 61.6 µM.
Potency means the concentration at half of the fitted maximal effect; tags describe the fitted curve by direction and shape or compound fluorescence and quenching.

Sequence of UniProt O00255 (O00255 whole entry, looked up): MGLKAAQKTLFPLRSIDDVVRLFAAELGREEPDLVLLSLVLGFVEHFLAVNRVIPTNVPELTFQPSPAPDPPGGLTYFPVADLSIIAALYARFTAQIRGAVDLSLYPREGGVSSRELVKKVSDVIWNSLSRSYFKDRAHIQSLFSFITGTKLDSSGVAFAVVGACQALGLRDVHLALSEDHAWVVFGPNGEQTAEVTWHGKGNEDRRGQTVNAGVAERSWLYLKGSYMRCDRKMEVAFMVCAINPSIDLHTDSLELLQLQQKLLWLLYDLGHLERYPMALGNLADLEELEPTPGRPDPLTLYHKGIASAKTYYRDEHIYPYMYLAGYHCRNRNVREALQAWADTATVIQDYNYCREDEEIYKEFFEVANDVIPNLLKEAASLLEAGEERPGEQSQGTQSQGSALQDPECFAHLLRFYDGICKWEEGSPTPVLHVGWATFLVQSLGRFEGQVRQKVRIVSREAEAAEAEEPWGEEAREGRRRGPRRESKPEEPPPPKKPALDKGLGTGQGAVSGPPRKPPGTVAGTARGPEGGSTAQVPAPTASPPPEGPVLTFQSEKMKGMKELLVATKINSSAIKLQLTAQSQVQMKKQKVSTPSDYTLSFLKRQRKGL

SMILES	Potency
Cn1cccc1C(=O)C(=O)Nc1ccc(Cl)cc1	inconclusive: 39.8 µM [inhibitor, single point]
CCOC(=O)/C(C#N)=C1\SS/C(=C(/C#N)C(=O)OCC)S1	inconclusive: 25.1 µM [quencher, side channel, single point]
O=C(COc1ccccc1[N+](=O)[O-])N/N=C/C=C/c1ccco1	inconclusive: 22.4 µM [quencher, side channel, single point]
COc1ccccc1N=Cc1c(O)c2ccccc2oc1=O	inconclusive: 39.8 µM [inhibitor, single point]
Cc1ccc(/C(=N/Nc2nc3ccccc3s2)C2=C(O)c3ccccc3C2=O)cc1	inconclusive: 10 µM [quencher, side channel, partial curve]
CCn1c2ccccc2c2cc(/C=N/NC(=O)c3ccccc3C)ccc21	inconclusive: 22.4 µM [inhibitor, partial curve]
Cc1nnc(NC(=O)c2cccc(F)c2)s1	inconclusive: 2.82 µM [inhibitor, partial curve]
CCOC(=O)c1ccc2c(c1)C1C=CCC1C(C(=O)O)N2 (configuration not stated)	inconclusive: 14.1 µM [quencher, side channel, partial curve]
CCC(c1nnnn1C1CCCCC1)N1CCN(C2CCCC2)CC1 (configuration not stated)	inconclusive: 39.8 µM [inhibitor, single point]
O=C(O)CCN1CC2([N+](=O)[O-])C=CC(=O)C([N+](=O)[O-])(C1)C2CC(=O)c1ccccc1 (configuration not stated)	inconclusive: 39.8 µM [quencher, side channel, single point]
CSc1nc(C)cc(SC(C(C)=O)C(=O)Nc2ccccc2)n1 (configuration not stated)	inconclusive: 0.794 µM [inhibitor, full curve]
COc1ccc(C(=O)NCc2ccc3[nH]c(C)cc3c2)cc1OC	inconclusive: 22.4 µM [fluorescent, side channel, partial curve]
COc1ccc(/C=N/N=C2/CC(C)(C)Cc3n[nH]c(=O)cc32)cc1	inactive
CCOC(=O)CSc1nc2sc3c(c2c(=O)n1-c1ccc(OCC)cc1)CCN(C)C3	inconclusive: 14.1 µM [inhibitor, partial curve, poor fit]
COc1cc(C(=O)Nc2cccc3cccnc23)cc(OC)c1OC	inconclusive: 28.2 µM [inhibitor, single point]
CCN(Cc1ccccc1)C(=O)C1CCN(Cc2ccc(SC)cc2)CC1	inactive
O=C(/C(=C/O)N=Nc1ccccc1)c1cccs1	inconclusive: 20 µM [quencher, side channel, single point]
CN(C)S(=O)(=O)c1cccc(C(=O)NCCNC(=O)c2cccc(S(=O)(=O)N(C)C)c2)c1	inconclusive: 3.16 µM [inhibitor, partial curve]
CC1=C[C@@H](O)CC(C)(C)[C@@H]1/C=C/C(C)=C/C=C/C(C)=C/C=C/C=C(C)/C=C/C=C(C)/C=C/C1=C(C)C[C@H](O)CC1(C)C	inactive

SMILES	Potency
CCN(CC)c1ccc(/C=C2/C(=O)c3ccc(C(=O)O)cc3C2=O)cc1	inconclusive: 28.2 µM [fluorescent, side channel, single point]
COC(=O)c1c(NS(=O)(=O)c2ccc3ccccc3c2)sc2c1CCCC2	inconclusive: 31.6 µM [quencher, side channel, single point]
O=C(COC(=O)c1ccc(S(=O)(=O)N2CCCC2)cc1)NCc1ccc(F)cc1	inconclusive: 39.8 µM [fluorescent, side channel, single point]
O=C(/C=C/c1ccccc1[N+](=O)[O-])NCc1ccc(Cl)cc1	inconclusive: 22.4 µM [quencher, side channel, single point]
CSc1cccc(NC(=O)Nc2ccc(Cl)cc2)c1	inconclusive: 10 µM [quencher, side channel, partial curve]
COc1ccc(C(=O)/C=C/Nc2c(C)n(C)n(-c3ccccc3)c2=O)cc1OC	inactive
CCOC(=O)c1[nH]c2ccc(OC)cc2c1NC(=O)CN1CCc2ccccc2C1	inconclusive: 39.8 µM [quencher, single point]
CC(C)(C)N1C(=O)[C@H]2[C@@H](c3ccc(Br)cc3)N3C(=O)N(c4cccc(Br)c4)C(=O)[C@@]3(Cc3ccccc3)[C@H]2C1=O	inconclusive: 39.8 µM [inhibitor, single point]
CCO/C(=C/c1sc2ccc(OC)cc2[n+]1CCCS(=O)(=O)[O-])CC	inconclusive: 39.8 µM [fluorescent, side channel, single point]
Cc1ccc2nc(COc3ccc(N(C)S(=O)(=O)c4ccccc4)cc3)cc(=O)n2c1	inconclusive: 22.4 µM [quencher, side channel, partial curve]
C=CCOc1c(OC)cc(/C=N/Nc2cccc(C(=O)O)c2)c(Br)c1Br	inconclusive: 20 µM [quencher, side channel, single point]
NC(=S)N=Nc1c(O)[nH]c2c(Br)cc(Br)cc12	inconclusive: 28.2 µM [quencher, side channel, partial curve]
Nc1nc(O)c(N=Nc2ccc(S(N)(=O)=O)cc2)c(=O)[nH]1	inconclusive: 31.6 µM [quencher, side channel, single point]
CCN(CC)CCCNc1nc(SC)nc2sc3c(c12)CCN(C)C3	inconclusive: 11.2 µM [inhibitor, partial curve]
O=C(Nc1ccccn1)c1cccc(S(=O)(=O)N2CCOCC2)c1	inactive
Nc1cc([N+](=O)[O-])cc2oc(-c3ccccc3)cc12	inconclusive: 10 µM [quencher, side channel, partial curve]
COc1cc([N+](=O)[O-])c2ncsc2c1	inactive
Cc1ccc2c(C)c(C(=O)Nc3ccc(S(=O)(=O)Nc4onc(C)c4C)cc3)oc2c1	inconclusive: 11.2 µM [quencher, side channel, partial curve]
CC1CCN(CCCCOc2ccc(C(C)(C)C)cc2)CC1	inconclusive: 15.8 µM [fluorescent, side channel, partial curve]

SMILES	Potency
O=C(O)c1ccccc1-c1nc(-c2ccccc2)c(-c2ccccc2)[nH]1	inactive
Cc1ccc(C(=O)Nc2ccc(C(=O)N/N=C/c3c[nH]c4ccccc34)cc2)cc1	inconclusive: 11.2 µM [quencher, side channel, partial curve]
CCOC(=O)c1c(-c2ccccc2)csc1NC(=O)c1nn(CC)cc1Br	inactive
COc1ccc(-c2cc(C)no2)cc1S(=O)(=O)N1CCN(c2ccccc2F)CC1	inconclusive: 11.2 µM [quencher, side channel, partial curve]
CCN(CC)c1ccc(/C=C2\C(=O)c3ccc(C(=O)O)cc3C2=O)cc1	inconclusive: 25.1 µM [fluorescent, side channel, partial curve]
O=C(C1CCCCC1)N1CCCC(c2nc3c(nnn3Cc3ccccc3)c(=O)[nH]2)C1 (configuration not stated)	inconclusive: 10 µM [fluorescent, side channel, partial curve, poor fit]
CC(C)Cc1cc(C(=O)Nc2sc3c(c2C#N)CCC3)no1	inconclusive: 15.8 µM [quencher, side channel, partial curve]
O=C(O)c1ccc(NS(=O)(=O)c2ccc3c(c2)C(=O)c2ccccc2C3=O)cc1	inconclusive: 35.5 µM [quencher, side channel, single point]
Cc1ccccc1C(=O)N1CCN(c2ccc(NC(=O)c3ccc4c(c3)OCCO4)cc2)CC1	inconclusive: 39.8 µM [quencher, side channel, single point]
CCCn1nc(NS(=O)(=O)c2cccc3nonc23)c2cc3ccccc3nc21	inconclusive: 20 µM [quencher, side channel, single point]
Cc1nn(-c2ccccc2)c2sc(-c3n[nH]c(=S)o3)cc12	inconclusive: 25.1 µM [quencher, side channel, partial curve]
COc1ccc(C(=O)NC2CCCc3c2cnn3-c2cccc(C)c2C)c(OC)n1 (configuration not stated)	inconclusive: 8.91 µM [fluorescent, side channel, full curve]
CC(C)C1C(=O)CC(c2ccccc2)NC1c1ccccc1 (configuration not stated)	inconclusive: 12.6 µM [inhibitor, partial curve]
O=c1[nH]c(/C=C\c2ccc(O)c(O)c2)nc(O)c1[N+](=O)[O-]	inconclusive: 25.1 µM [quencher, side channel, single point]
Cc1ccsc1C(=O)N1CCCC(CCC(=O)NCc2ccccc2F)C1 (configuration not stated)	inconclusive: 3.55 µM [fluorescent, side channel, partial curve]
COc1ccc(-c2[nH]n(-c3ccc([N+](=O)[O-])cc3)c(=O)c2C=NCc2ccccc2)cc1	inconclusive: 11.2 µM [quencher, side channel, partial curve]
COc1ccc(-c2noc(-c3ccccc3C(=O)Nc3cccc(OC)c3)n2)cc1	inconclusive: 7.94 µM [quencher, side channel, partial curve]
Cc1ccc(S(=O)(=O)N2CC(O)CC2C(=O)NCc2ccc3c(c2)OCO3)cc1 (configuration not stated)	inconclusive: 31.6 µM [inhibitor, single point]
O=C(CSc1ccc(-c2cccs2)nn1)c1cccs1	inconclusive: 25.1 µM [quencher, side channel, partial curve]
